Changes are numbered by the printed parent chain.
B1: Z18101-ABD (designed binder)
chain: AQHDEALEVDAKYAKERNSAAYEILYLPNLTNLQKWAFIWKLDDDPSQSSELLSEAKKLNDSQAPKVDYVLAEAKVLANRELDKYGVSDYYKNLINNAKTVEGVKALIDEILAALPYVPG
notes: domain: GA3
B2: Z18179-ABD (designed binder)
chain: B1 chain with S19L, Y22Q, N32Q, L33K, K35R
notes: domain: GA3
B3: Z18153-ABD (designed binder)
chain: B1 chain with S19I, L33Q
notes: domain: GA3
B4: Z18148-ABD (designed binder)
chain: B1 chain with S19E, N32Q, L33K
notes: domain: GA3
B5: Z18240-ABD (designed binder)
chain: B1 chain with S19Q, N32Q, L33A
notes: domain: GA3
B6: Z18106-ABD (designed binder)
chain: B1 chain with S19A, Y22F, N32S, L33A, K35V
notes: domain: GA3
B7: Z18124-ABD (designed binder)
chain: B1 chain with S19D, Y26Q, L33Q, K35H
notes: domain: GA3
B8: Z18116-ABD (designed binder)
chain: B1 chain with S19A, N32Q, L33A
notes: domain: GA3
B9: Z18138-ABD (designed binder)
chain: B1 chain with S19I, N32Q, L33N
notes: domain: GA3
B10: Z18353-ABD (designed binder)
chain: B1 chain with S19E, N32Q, L33A
notes: domain: GA3
B11: Z18104-ABD (designed binder)
chain: B1 chain with S19F, L33S
notes: domain: GA3
B12: Z18110-ABD (designed binder)
chain: B1 chain with S19K, N32Q, L33Q, K35I
notes: domain: GA3
B13: Z18137-ABD (designed binder)
chain: B1 chain with N32S, L33Q
notes: domain: GA3
B14: Z18220-ABD (designed binder)
chain: B1 chain with S19E, N32S, L33K
notes: domain: GA3
B15: Z18156-ABD (designed binder)
chain: B1 chain with S19F, N32Q, L33R
notes: domain: GA3
B16: Z18252-ABD (designed binder)
chain: B1 chain with S19E, Y22F, L33Q
notes: domain: GA3
B17: Z18133-ABD (designed binder)
chain: B1 chain with S19Q, N32Q, L33K
notes: domain: GA3
B18: Z18140-ABD (designed binder)
chain: B1 chain with S19I, Y22Q, L33A
notes: domain: GA3
B19: Z18128-ABD (designed binder)
chain: B1 chain with L33Q, K35R
notes: domain: GA3
B20: Z18158-ABD (designed binder)
chain: B1 chain with S19R, N32H, L33S
notes: domain: GA3
B21: Z18149-ABD (designed binder)
chain: B1 chain with S19N, N32Q, L33A
notes: domain: GA3
B22: Z18117-ABD (designed binder)
chain: B1 chain with S19K, Y22F, N32Q, L33E
notes: domain: GA3
B23: Z18243-ABD (designed binder)
chain: B1 chain with S19A, N32Q
notes: domain: GA3
B24: Z18185-ABD (designed binder)
chain: B1 chain with S19E, Y22Q, N32Q, L33K, K35I
notes: domain: GA3
B25: Z18119-ABD (designed binder)
chain: B1 chain with S19Q, L33S, K35I
notes: domain: GA3
B26: Z18176-ABD (designed binder)
chain: B1 chain with S19D, N32A, L33S, K35R
notes: domain: GA3
B27: Z18374-ABD (designed binder)
chain: B1 chain with S19E, Y22F, Y26H, N32K, L33A, K35H, D43A
notes: domain: GA3
B28: Z18172-ABD (designed binder)
chain: B1 chain with Y22F, L33A
notes: domain: GA3
B29: Z18115-ABD (designed binder)
chain: B1 chain with S19F, L33A
notes: domain: GA3
B30: Z18377-ABD (designed binder)
chain: B1 chain with S19D, Y22F, N32Q, L33T, K35I
notes: domain: GA3
B31: Z18143-ABD (designed binder)
chain: B1 chain with S19D, L33S
notes: domain: GA3
B32: Z18135-ABD (designed binder)
chain: B1 chain with S19T, N32K, L33S, K35Q
notes: domain: GA3
B33: Z18174-ABD (designed binder)
chain: B1 chain with S19Q, N32Q, L33R
notes: domain: GA3
B34: Z18130-ABD (designed binder)
chain: B1 chain with Y22Q, L33R
notes: domain: GA3
B35: Z18111-ABD (designed binder)
chain: B1 chain with S19H, N32Q, L33Q
notes: domain: GA3
B36: Z18418-ABD (designed binder)
chain: B1 chain with S19E, Y26H, N32S, L33Y, K35H
notes: domain: GA3
B37: Z18150-ABD (designed binder)
chain: B1 chain with S19Q, Y22F, L33S
notes: domain: GA3
B38: Z18144-ABD (designed binder)
chain: B1 chain with S19H, Y22F, L33A
notes: domain: GA3
B39: Z18129-ABD (designed binder)
chain: B1 chain with N32Q, L33A
notes: domain: GA3
B40: Z18268-ABD (designed binder)
chain: B1 chain with S19A, Y22F, Y26W, L33A
notes: domain: GA3
B41: Z18228-ABD (designed binder)
chain: B1 chain with S19K, Y22Q, N32Q, L33N, K35I
notes: domain: GA3
B42: Z18167-ABD (designed binder)
chain: B1 chain with S19E, L33N
notes: domain: GA3
B43: Z18164-ABD (designed binder)
chain: B1 chain with S19T, N32Q, L33E
notes: domain: GA3
B44: Z18131-ABD (designed binder)
chain: B1 chain with S19E, N32A, L33A
notes: domain: GA3
B45: Z18118-ABD (designed binder)
chain: B1 chain with S19A, N32A, L33G
notes: domain: GA3
B46: Z18108-ABD (designed binder)
chain: B1 chain with S19D, N32K, L33Q
notes: domain: GA3
B47: Z18152-ABD (designed binder)
chain: B1 chain with S19V, N32Q, L33N
notes: domain: GA3
B48: Z18233-ABD (designed binder)
chain: B1 chain with S19T, Y22Q, N32Q, L33G
notes: domain: GA3

These binders were tested against T1, human PD-L1 Fc Chimera (R&D Systems, cat. no. 156-B7-100) (human, UniProt Q9NZQ7 19-239, biotinylated with Sulfo-NHS-LC-Biotin in ELISA and AlphaLISA; not biotinylated in SPR) (assay: ELISA titration, captured Z-ABD).
T1 construct: bought; also called hPD-L1; biotinylated hPD-L1; not shown: Fc part of the bought Fc chimera, not described
T1 sequence (Q9NZQ7 19-239, change not shown): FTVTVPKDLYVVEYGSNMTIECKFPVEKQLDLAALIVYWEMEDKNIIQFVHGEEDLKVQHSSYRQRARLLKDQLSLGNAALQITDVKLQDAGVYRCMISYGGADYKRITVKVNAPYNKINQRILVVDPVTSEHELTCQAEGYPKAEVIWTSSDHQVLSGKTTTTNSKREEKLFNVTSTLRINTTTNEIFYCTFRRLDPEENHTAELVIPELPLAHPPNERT

Question: B1 was tested. Which EC50 did it give?
Answer: 0.067 nM

Question: B2 was tested. Which EC50 did it give?
Answer: 0.087 nM

Question: How did the EC50 turn out when B3 was run?
Answer: 0.08 nM

Question: For B4, which EC50 is on record?
Answer: 0.07 nM

Question: B5 was tested. Which EC50 did it give?
Answer: 0.078 nM

Question: Which EC50 does the source give for B6 here?
Answer: 0.083 nM

Question: With B7 as the binder, how does the EC50 read?
Answer: 0.084 nM

Question: B8 was tested. Which EC50 did it give?
Answer: 0.074 nM

Question: How did the EC50 turn out when B9 was run?
Answer: 0.074 nM

Question: B10 was tested. Which EC50 did it give?
Answer: 0.077 nM

Question: For B11, which EC50 is on record?
Answer: 0.075 nM

Question: Which EC50 does the source give for B12 here?
Answer: 0.081 nM

Question: For B13, which EC50 is on record?
Answer: 0.074 nM

Question: How did the EC50 turn out when B14 was run?
Answer: 0.084 nM

Question: Which EC50 does the source give for B15 here?
Answer: 0.08 nM

Question: With B16 as the binder, how does the EC50 read?
Answer: 0.085 nM

Question: Which EC50 does the source give for B17 here?
Answer: 0.077 nM

Question: How did the EC50 turn out when B18 was run?
Answer: 0.087 nM

Question: With B19 as the binder, how does the EC50 read?
Answer: 0.077 nM

Question: With B20 as the binder, how does the EC50 read?
Answer: 0.087 nM

Question: With B21 as the binder, how does the EC50 read?
Answer: 0.069 nM

Question: B22 was tested. Which EC50 did it give?
Answer: 0.081 nM

Question: Which EC50 does the source give for B23 here?
Answer: 0.081 nM

Question: Which EC50 does the source give for B24 here?
Answer: 0.081 nM

Question: With B25 as the binder, how does the EC50 read?
Answer: 0.1 nM

Question: Which EC50 does the source give for B26 here?
Answer: 0.089 nM

Question: How did the EC50 turn out when B27 was run?
Answer: 0.1 nM

Question: How did the EC50 turn out when B28 was run?
Answer: 0.076 nM

Question: Which EC50 does the source give for B29 here?
Answer: 0.077 nM

Question: B30 was tested. Which EC50 did it give?
Answer: 0.078 nM

Question: How did the EC50 turn out when B31 was run?
Answer: 0.078 nM

Question: With B32 as the binder, how does the EC50 read?
Answer: 0.085 nM

Question: B33 was tested. Which EC50 did it give?
Answer: 0.084 nM

Question: For B34, which EC50 is on record?
Answer: 0.074 nM

Question: For B35, which EC50 is on record?
Answer: 0.078 nM

Question: For B36, which EC50 is on record?
Answer: 0.08 nM

Question: B37 was tested. Which EC50 did it give?
Answer: 0.076 nM

Question: How did the EC50 turn out when B38 was run?
Answer: 0.079 nM

Question: For B39, which EC50 is on record?
Answer: 0.062 nM

Question: Which EC50 does the source give for B40 here?
Answer: 0.089 nM

Question: Which EC50 does the source give for B41 here?
Answer: 0.088 nM

Question: B42 was tested. Which EC50 did it give?
Answer: 0.084 nM

Question: With B43 as the binder, how does the EC50 read?
Answer: 0.076 nM

Question: B44 was tested. Which EC50 did it give?
Answer: 0.087 nM

Question: How did the EC50 turn out when B45 was run?
Answer: 0.079 nM

Question: Which EC50 does the source give for B46 here?
Answer: 0.078 nM

Question: For B47, which EC50 is on record?
Answer: 0.08 nM

Question: For B48, which EC50 is on record?
Answer: 0.086 nM
